The RNAGym collection of RNA variant scans (doi:10.7554/elife.90254)
The source gives no read counts; variants with many changes may rest on few reads.

B1: OR4K15 (parent)
chain: GUUAACGGUCAUAGGCCAUGGAAACUAGGAGCACCAUUUCGCUGCCAGUGAAGAAAUGAACAAAGAAAAUCUGGGCCAGGCAGGCAUCAAAAGAAAUAGUCUUGCGCUCAACCAGAAAGUCUGUAAUCAUUUUAAGGGUA

Variants of: B1
Assay: self-cleavage, relative activity (ratio to wild type); higher = more cleavage; in vitro, sequencing; the parent is a self-cleaving ribozyme

Row | Variant | self-cleavage
1 | U39A C61U C121U | 2.31
2 | A13G A82G U131C | 0.52
3 | U38A A62G A94U A95G | 1.69
4 | G29U U43G U70C A90U A96U | 2.08
5 | A56C A78U U108A U130C | 0.01
6 | A22G U43A A86U | 1.64
7 | A69G A90G A110C U131G | 0.18
8 | A5G U43C A116G | 1.34
9 | A62U A91U U120C | 1.33
10 | U19C U100C U130C | 2.23
11 | U19C G41C G53U | 0.62
12 | A52G A78G A114G A126U U130C | 0.06
13 | A36C A47G U124C U130C | 0.13
14 | A11G U19A A111G | 0.04
15 | A67G A91G A116G U132C | 0.37
16 | A5U U57C A125U | 1.01
17 | U3G A36G A56G A110G | 0.04
18 | A5G A51U C77A U103C | 0.44
19 | G75A G93U C112A | 0.01
20 | A18U A66G A111G | 0.03
21 | G7A A59G A89G | 1.17
22 | U2C A18U A126G | 0.64
23 | U103C A114U A135U | 0.01
24 | C16A U57C U122C | 0.94

Row | Variant | self-cleavage
25 | A59G A94G U103C | 0.84
26 | U2C U72C A111G A118U | 0.02
27 | U38C A51C A82G A118U | 0.23
28 | A54G A62G A86C A95G | 0.67
29 | U70C A89G U122C | 0.1
30 | A89U A118G U120A | 2.62
31 | C16G A59G A60G A67G A78G | 0.35
32 | U49C A62G A69G A117G | 1.03
33 | A18G A22G A54G | 1.2
34 | A33G A60G U139G | 1.26
35 | A18G A47C U102C | 2.18
36 | U43A A60G A118G A126G | 0.54
37 | A68G A110G A126G | 0.12
38 | A13G A63G A111G U130G U133A | 0.06
39 | A62C A78U A91G | 0.08
40 | A62C U87C U122C | 0.35
41 | A36U A64G A67G | 1.37
42 | G8A A60G C71A | 0.78
43 | A23G G31A A64G U70C | 0.81
44 | A22G A66G A69G | 0.45
45 | U9C U37C U43C A78G A92U A96G A110G | 0.07
46 | A5G U19C A129G | 0.51
47 | U9C A24G U37C U43A | 1.25
48 | C17U C32G A33G | 0.62

Row | Variant | self-cleavage
49 | A68G C105U U127C | 0.03
50 | A23G A64U G106C | 0.06
51 | A11G A56C A59G A64G A96C | 0.38
52 | U49C A59G A69G G115U A135G | 0.02
53 | A36U U102C A111C | 0.01
54 | A30G U43C A66G A90U A95G U127G | 1.8
55 | A33G U57C A67G A94G | 0.83
56 | A22U A27G A30G A62U U133C | 0.66
57 | A52G A94G U97C | 0.88
58 | A18G A89G A90G U103A A118G G123A | 0.29
59 | U12C C32U G74A G136U | 0.49
60 | G73A A91U U120A | 0.12
61 | U43G A54G U70C | 1.08
62 | A47U A86U G115A A126G | 0.06
63 | A64U U127C U133C | 1.45
64 | A55G G80A U100C U108A | 0.01
65 | U37C A60G A62G A117G | 1.18
66 | C46U A96G A111C | 0.01
67 | U9C U43A A96U C105U | 0.12
68 | A5G U39A A82U U120C | 0.23
69 | U9A A47C U127G | 1.52
70 | C42U A51G A60G A114U A135U | 0.02
71 | U19C A55G U127C | 0.37
72 | U38C A54C A63G A68G U70C A95G | 0.4

Row | Variant | self-cleavage
73 | A23G A55C U57C U87C A125G U131C | 0.13
74 | U19C A60G U108C | 0.04
75 | U12C A23G A67G A78U | 0.35
76 | A47U A67G U102A | 0.48
77 | A67G A82U U87A A98U | 0.45
78 | A51G A82G A96G | 0.62
79 | A22G U97C U108C U122C | 0.01
80 | A60G U102G U131C | 0.54
81 | G21U U38C A94G | 1.01
82 | G7U A30G U49C A66G A92G U127C | 0.99
83 | A18G A60U A62G A118C U127A | 1.59
84 | A63G A110G U120A | 0.13
85 | G29U A55G G83A U133A | 1.79
86 | A30G A51G G104A U122C | 0.03
87 | A56C U87G A117G A129U | 0.09
88 | G14A A18G A82G | 0.26
89 | A13G U43C U49C A91G | 0.31
90 | A67G A111G A116G | 0.01
91 | U9A A91G A92U | 1.31
92 | U26C A62G A67G A89G A111G | 0.02
93 | A60C G119A U122C U132C | 1.58
94 | U26A A62G A64G | 1.62
95 | U9C U38C U72C | 0.43
96 | A11G A66G U103C G136A | 0.78

Row | Variant | self-cleavage
97 | A22G U37C U139C | 1.59
98 | A86U A94G U122A U131C | 1.22
99 | A18U A23G A92G | 1.47
100 | A92G A98G C113U | 0
101 | A23G U70C A135U | 0.24
102 | A27U A69U A117G U131C | 1.14
103 | A36G A82G A94G U103C | 2.73
104 | U38C U102A U103C U139C | 0.12
105 | U38A A56G U108C U120C | 0
106 | U9C A24G A78G A135G | 0.11
107 | U2C A47U A78G A90G A140U | 0.17
108 | A5U U39A G73A | 0.16
109 | A47G A55G A59G | 0.42
110 | A18G A27G A30G U49A | 1.36
111 | U49G A60G U70C A91G | 0.34
112 | A82G A114G A116G | 0.07
113 | U12C A23G C42U A66G G83U A94U | 0.45
114 | A22G A36U A54G A68G A90U A125U | 1.78
115 | A24G A54U A111G | 0.05
116 | A22G A95U U131C | 0.16
117 | A30G A33G U108C | 0.09
118 | A54G A78G C101A | 0.12
119 | A13U U49G A68G U122G A126G | 1.08
120 | U26A A47G A90G U108C A116G U133G A135G | 0.01

Row | Variant | self-cleavage
121 | A22G A66G U122C | 1.37
122 | A27G U39C U70C A91G A110U A111G | 0.03
123 | U87C A117G U127C | 0.68
124 | A27G A91U C105G U122C U132C U133C | 0
125 | U2C U124C U132C | 0.82
126 | A23G A36G U39C | 1.72
127 | U108C A126G A140U | 0.01
128 | A30G U37C A56C G119A | 2.47
129 | U12C A24G U37C | 0.82
130 | A13U A114G U122C | 0.13
131 | C61U A69G U100C | 2.07
132 | U12A A24G A52G | 1.16
133 | C32G C46U A56G | 1.07
134 | U9C A33G A69U | 1.49
135 | A5U A82G U131C | 0.12
136 | U2A A18G U100C | 1.32
137 | A47G U49C A82U U87C | 0.18
138 | A54G A56G U87C A92G | 1.83
139 | A13G A54G A92G A111G U127C | 0.04
140 | A27C U87C A90G | 0.4
141 | A60G U87A A116G | 0.31
142 | U9C A33G U39C A92G C128U | 0.62
143 | A51G A62G A95G | 1.85
144 | A11G A22G A56G A86G A134G | 1.09

Row | Variant | self-cleavage
145 | A11G A56G U87A U97C A116G | 0.44
146 | A24C A33G A47U U131C | 0.27
147 | U38C A68G A90G A116G | 0.56
148 | C42A U57C A59G U100A U139A | 0.36
149 | U72C A89U U127C | 0.02
150 | A51G A95G U108C | 0.01
151 | G21A A62U A95G U108C | 0.01
152 | A69U A82G A94U U127C | 0.89
153 | A22G A23G A47G | 0.94
154 | A56G U102C U122C | 1.85
155 | A47G A95G U131C G138A | 0.87
156 | C35A C45U A51G | 0.93
157 | U19C U70A A96G A117U A126G U131C | 0.22
158 | U87A A91G A95G | 1.32
159 | U9C U38A U43C A47U A116G | 0.2
160 | A18U A54G A60G U87A G115U A126G | 0.09
161 | A5G A11G A110U | 0.78
162 | U26C A27U U127C | 1.59
163 | A33G A51G C105A | 0.05
164 | U9C A23G C40G A63G | 0.85
165 | A51U A68U A98G | 1.15
166 | A23G A27U A33U A82G A118G | 0.69
167 | U19C A62G A64G A86G | 0.84
